Some of the results follow. The list includes weakly bound sequences.
Target: MaxL homodimer (UniProt P61244)
Assay: universal protein-binding microarray (PBM)
Settings: PBS-based mixture, 10 nM His-tagged protein dimer, 2% milk, 200 ng/uL BSA, 50 ng/uL salmon testes DNA, 0.02% TX-100; detection with Alexa 488 anti-His …; high values mean tight binding; most listed sequences are background and not binding sites; double strand, one strand shown

Sequence of UniProt P61244 (P61244 whole entry): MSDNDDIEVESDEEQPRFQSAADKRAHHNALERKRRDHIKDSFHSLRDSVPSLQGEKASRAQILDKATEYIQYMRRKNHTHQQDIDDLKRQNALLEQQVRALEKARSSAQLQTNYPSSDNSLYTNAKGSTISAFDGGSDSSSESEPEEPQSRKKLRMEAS

Row | Sequence | binding signal (normalized occupancy)
1 | TGGGCAAA | 0.0704
2 | AGTAGAGA | 0.0707
3 | CAGCTGAG | 0.0664
4 | ACCGCATC | 0.0749
5 | ATGGGCCC | 0.0703
6 | GGCAGGCC | 0.0644
7 | CTCGCAAA | 0.0742
8 | GATTGGGC | 0.0764
9 | GGCATGAC | 0.0858
10 | GGCCGACA | 0.0686
11 | ATAGTCAG | 0.0801
12 | ACTAGTCA | 0.0755
13 | CAAGCGAA | 0.0755
14 | AGTAATGG | 0.0783
15 | GACGCCCA | 0.073
16 | AGGAAGCG | 0.071
17 | ACTAGATG | 0.0776
18 | GATCTATA | 0.0774
19 | GGTACTAA | 0.0754
20 | CGGGCGTA | 0.0722
21 | ATTGGGAG | 0.076
22 | CCTGTTGC | 0.0752
23 | AGGGGGAC | 0.0712
24 | CAATGTGA | 0.0948
25 | GAGCGATC | 0.0691

Row | Sequence | binding signal (normalized occupancy)
26 | CTACTTCC | 0.0742
27 | AAAGTACC | 0.0775
28 | CCACAAAA | 0.0716
29 | CCGCTACG | 0.0679
30 | CGTGACAC | 0.093
31 | GCATACGA | 0.0814
32 | TGCGGTAA | 0.0754
33 | GGGGTCAA | 0.0904
34 | CGGATGGA | 0.0765
35 | AAAATGTG | 0.0886
36 | ATACCTAT | 0.0781
37 | ACGATGCC | 0.073
38 | ATCCCCCC | 0.0808
39 | TGACGACA | 0.0736
40 | CCTGCGTA | 0.0745
41 | AGGTGACA | 0.0777
42 | CCTAGGTA | 0.0715
43 | CCGGATCC | 0.0759
44 | CATGCTTA | 0.104
45 | TATAGACA | 0.0807
46 | ACTACGAA | 0.0738
47 | ACCGGTCC | 0.0659
48 | ACCATACA | 0.0822
49 | ATAAATCA | 0.0808
50 | AAAGTCCC | 0.0644

Row | Sequence | binding signal (normalized occupancy)
51 | TCAATGAA | 0.0799
52 | ATGGGTCC | 0.0886
53 | GACTGCTC | 0.0675
54 | TCCATCCA | 0.0825
55 | CGTCCACC | 0.0751
56 | AGTTGGTA | 0.074
57 | AGCATACA | 0.087
58 | AGGTTTCA | 0.0727
59 | AAGAGCGA | 0.0682
60 | CTGCTTCA | 0.0751
61 | AGCTTTGC | 0.0662
62 | AGCACAGG | 0.0743
63 | AACCACTT | 0.073
64 | CGGCGTAG | 0.0712
65 | CGGACATC | 0.077
66 | TATCGTCA | 0.0811
67 | CTTGGAGC | 0.0677
68 | TGCCGGAA | 0.0695
69 | CCAAGTCA | 0.0739
70 | TTCAGGAA | 0.0721
71 | ACTGCGGG | 0.0665
72 | CGAGTGCC | 0.0682
73 | GGCGTCTA | 0.0705
74 | ACAACCGC | 0.0762
75 | AGCTGAGA | 0.0685

Row | Sequence | binding signal (normalized occupancy)
76 | AGATATAG | 0.0833
77 | CGGCGGTA | 0.0723
78 | ATACTTTA | 0.0824
79 | CAGGGTGC | 0.0727
80 | GTTCGACA | 0.0752
81 | AAGGGTGC | 0.0783
82 | CCATTAAA | 0.0779
83 | AGGCCCAT | 0.0774
84 | CCATTAAG | 0.0744
85 | ACCCAAGT | 0.0781
86 | GCATTGCC | 0.0746
87 | CTGCTCTC | 0.0736
88 | CAGTTTCA | 0.0697
89 | GTCGTGTA | 0.0822
90 | GCTGACCA | 0.0688
91 | GGCTCGGA | 0.0728
92 | GGCGAATA | 0.0819
93 | CAGTGCTC | 0.0745
94 | ATCATTCC | 0.0804
95 | TCCTTAGA | 0.0714
96 | ACAGGAAC | 0.0773
97 | AACATAGA | 0.0802
98 | AATCCGCT | 0.0713
99 | GGCCTCTA | 0.0736
100 | GAGCACTC | 0.0779

Row | Sequence | binding signal (normalized occupancy)
101 | CCGCCCTA | 0.0723
102 | CAGCCCAA | 0.0773
103 | AACAAAGA | 0.0725
104 | AGTCTACC | 0.0714
105 | ATTGGGGA | 0.0777
106 | ACGAACGC | 0.0665
107 | CATATAGC | 0.0823
108 | TCTGTACA | 0.082
109 | AAAGGCAA | 0.0733
110 | CGTCGTCC | 0.0763
111 | AGTTTCAT | 0.0714
112 | ATGCCATC | 0.0815
113 | ACCAGTAC | 0.0725
114 | AGATGTTC | 0.0775
115 | CGGTCGCC | 0.0673
116 | ATCTGGTA | 0.0783
117 | GGCCTCAC | 0.0746
118 | AGGACGAT | 0.0759
119 | CAAATGCA | 0.0784
120 | GCCCCGCC | 0.0761
121 | ATGCATCA | 0.0872
122 | CCTCAGGC | 0.068
123 | GGGCTGCA | 0.0734
124 | GGCTGTCA | 0.073
125 | AGAATACT | 0.0797

Row | Sequence | binding signal (normalized occupancy)
126 | ACGGAAAC | 0.0713
127 | AGTACGGC | 0.0736
128 | AGTGCAGA | 0.0738
129 | GCACGCGC | 0.15
130 | GCCGGAAC | 0.0672
131 | CCGCGTCC | 0.0681
132 | ACCTGTAA | 0.0823
133 | AAGGCGCA | 0.0713
134 | ATTCGAAC | 0.0746
135 | GACAGAGC | 0.0684
136 | CTTCTAAA | 0.0721
137 | CTGTGTCA | 0.0742
138 | AAGCCCAA | 0.0729
139 | GGATATAA | 0.0786
140 | GATATTAA | 0.0772
141 | ACTGTCCA | 0.0772
142 | AGACATCA | 0.0757
143 | CATGCGTA | 0.122
144 | GGACGCCC | 0.0668
145 | AATTTACA | 0.0753
146 | AGAACACT | 0.0724
147 | GTGACCAA | 0.0765
148 | GCGATACC | 0.0717
149 | ACGCTGGA | 0.0772
150 | GTGGCACA | 0.0835

Row | Sequence | binding signal (normalized occupancy)
151 | ATTGTATC | 0.0821
152 | CAAGCCCG | 0.0691
153 | AGTTTATC | 0.0786
154 | CTTGTATC | 0.0779
155 | AAAGGATT | 0.0758
156 | ATAGAACC | 0.0766
157 | AACTGCGT | 0.0718
158 | AGTGTTTG | 0.0795
159 | CTCGAGAC | 0.0785
160 | AGAGACCT | 0.0737
161 | GAAAAACA | 0.0763
162 | ACTTCGTA | 0.0713
163 | AGGGGTAC | 0.078
164 | GGCGTGAC | 0.0927
165 | CATAGTCA | 0.0807
166 | GATCCCGC | 0.0762
167 | AATAATAA | 0.0826
168 | ATACGGAA | 0.0756
169 | CTGGTCCA | 0.0713
170 | AGCGGGTA | 0.0723
171 | ATAGCGAA | 0.0727
172 | GTTAGCGA | 0.0772

— paper PMC4242493
